Entries with a single value are a further part of the results.
Experiments:
[1] = biological target: Panitumumab kappa light chain (wild-type) (human); experiment: LCMS of Fabs cleaved from IgG; 2 HC + 2 LC co-expressed in HEK293
[2] = biological target: Ustekinumab lambda fusion light chain (human); experiment: as above
[3] = with Pani K147F S183K heavy chain
[4] = with Pani K147F S183R heavy chain
[5] = with Pani K147F S183Y heavy chain
[6] = with Pani wild-type heavy chain

% HC2-LC2 product [2, 3]: 39.8% | % HC2-LC2 product [2, 4]: 43.1% | % HC2-LC2 product [2, 5]: 42.8% | % HC2-LC2 product ([2]; with Pani S183K heavy chain): 41.6% | % HC2-LC2 product ([2]; with Pani S183R heavy chain): 34% | % HC2-LC2 product ([2]; with Pani S183Y heavy chain): 41.5% | % HC2-LC2 product [2, 6]: 39%
Substance: Ustekinumab heavy chain, CH1 A141D (from UniProt P01857 1-101)
% HC2-LC1 product [1, 3]: 10.5% | % HC2-LC1 product [1, 4]: 6.8% | % HC2-LC1 product [1, 5]: 11% | % HC2-LC1 product ([1]; with Pani S183R heavy chain): 12.9% | % HC2-LC1 product [1, 6]: 9.9%

Reference: patent publication US20230265134A1
